From publication PMC4336329 (PLoS ONE, 2015)
The whole screen tested about 310,000 compounds, of which about 14,000 (4.5%) showed an effect of 50% or more. The effect is printed as a negative number. The list shows a part of the results.

Target: human ether-à-go-go-related gene (hERG) potassium channel (human, UniProt Q12809)
Test: primary screen, population patch clamp on CHO cells stably expressing hERG
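Note: peak tail current of the secondary pulse compared with the same well before compound.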

Chain of human ether-à-go-go-related gene (hERG) potassium channel (Q12809 whole entry, looked up): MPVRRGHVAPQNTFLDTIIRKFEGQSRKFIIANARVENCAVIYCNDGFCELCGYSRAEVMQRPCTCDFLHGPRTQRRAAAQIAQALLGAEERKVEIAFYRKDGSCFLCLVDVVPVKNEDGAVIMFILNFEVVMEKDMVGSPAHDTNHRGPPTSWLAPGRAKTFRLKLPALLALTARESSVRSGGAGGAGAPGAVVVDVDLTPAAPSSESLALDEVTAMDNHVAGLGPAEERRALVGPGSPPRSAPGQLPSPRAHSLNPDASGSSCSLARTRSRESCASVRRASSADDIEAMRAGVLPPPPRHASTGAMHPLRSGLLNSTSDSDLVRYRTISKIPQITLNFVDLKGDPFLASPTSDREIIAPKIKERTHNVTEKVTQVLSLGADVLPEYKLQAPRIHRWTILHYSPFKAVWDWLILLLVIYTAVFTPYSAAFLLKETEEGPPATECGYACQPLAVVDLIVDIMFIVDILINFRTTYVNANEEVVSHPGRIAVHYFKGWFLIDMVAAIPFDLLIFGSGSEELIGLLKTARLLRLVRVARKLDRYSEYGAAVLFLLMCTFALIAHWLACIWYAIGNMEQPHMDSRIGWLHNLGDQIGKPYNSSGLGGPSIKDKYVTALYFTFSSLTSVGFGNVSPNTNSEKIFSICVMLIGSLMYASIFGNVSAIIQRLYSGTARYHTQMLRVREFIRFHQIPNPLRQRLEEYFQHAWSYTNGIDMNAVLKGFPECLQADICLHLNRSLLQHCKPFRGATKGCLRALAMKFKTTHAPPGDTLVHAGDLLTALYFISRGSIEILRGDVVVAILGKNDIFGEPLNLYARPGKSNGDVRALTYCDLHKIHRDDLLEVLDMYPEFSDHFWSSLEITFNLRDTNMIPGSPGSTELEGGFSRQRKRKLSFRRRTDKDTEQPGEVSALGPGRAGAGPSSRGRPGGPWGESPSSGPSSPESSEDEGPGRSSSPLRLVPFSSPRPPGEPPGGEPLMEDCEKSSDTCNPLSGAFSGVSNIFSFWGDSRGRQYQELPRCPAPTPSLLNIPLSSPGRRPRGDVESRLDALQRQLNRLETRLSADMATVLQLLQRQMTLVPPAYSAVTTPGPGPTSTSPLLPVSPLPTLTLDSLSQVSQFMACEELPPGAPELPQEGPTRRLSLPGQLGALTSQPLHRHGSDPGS

| Structure (SMILES) | hERG current change (%, negative = inhibition) at 10uM |
| --- | --- |
| CC(C)(C)NC(=O)CSc1nc2ccc(Nc3nc(N4CCOCC4)nc(N4CCOCC4)n3)cc2s1 | -2.64% |
| O=C(c1ccc(CNS(=O)(=O)c2cccc(Cl)c2)cc1)N1CCCC1 | 3.81% |
| O=C(NC1=NCCS1)c1ccc(Cl)c(S(=O)(=O)N2CCc3ccccc32)c1 | 3.46% |
| COc1cccc(NC(=S)N(CCc2c(C)[nH]c3ccccc23)Cc2cccs2)c1 | 13.5% |
| Nc1cc2c([N+](=O)[O-])cccc2o1 | 5.18% |
| COc1cccc(OC)c1CN1CCCC(C(=O)c2cccc(Cl)c2)C1 (stereo not drawn) | -69% |
| CCN(CC(=O)NC1CCS(=O)(=O)C1)c1nc(-c2ccccc2)nc2ccccc12 (stereo not drawn) | -35.6% |
| O=c1cc(CO)oc(CN2CCN(CCO)CC2)c1O | -4.45% |
| COC(=O)c1sc(SC)c(S(=O)(=O)C(C)C)c1N | -6.06% |
| Cc1ccc(N(NC(=O)C(C)(C)O)C(=O)c2ccccc2)cc1C | 17.3% |
| Nc1c(Br)cc(Br)cc1CNC1CCC(O)CC1 (stereo not drawn) | -12.8% |
| O=[N+]([O-])c1ccc([N+](=O)[O-])c(Nc2ccc(N3CCOCC3)cc2)c1 | 36.1% |
| Cc1ccc(CNc2nc3ccccc3s2)s1 | -18.2% |
| CC1(C)C(=O)Nc2ccccc2N1C(=O)CN1C(=O)c2ccccc2C1=O | -3.12% |
| CCOC(=O)c1cc(C#N)c(Oc2ccccc2)nc1-c1ccccc1 | 0.078% |
| Cc1nnc(N(C(=O)c2cnccn2)c2ccccc2)s1 | 21.3% |
| O=[N+]([O-])c1ccccc1NC1CCN(Cc2ccccc2)CC1 | -64.4% |
| O=C1C(Cl)=C(NCC2CCCO2)C(=O)N1CCc1ccccc1 (stereo not drawn) | -30.7% |
| Fc1ccc(/C=N/N2CCCCC2)c(F)c1 | 9.5% |
| O=C(Cn1nnc(-c2ccccc2)n1)NCc1cccs1 | 12.5% |
| COc1ccc(NC(=O)C(=O)N2N=C(C(C)C)CC2(O)C(F)(F)F)cc1 (stereo not drawn) | 5.75% |
| COc1ccc(N2CC(C(=O)Nc3ccc(S(=O)(=O)Nc4nccs4)cc3)CC2=O)cc1 (stereo not drawn) | 24% |
| CC(C)CCNC(=O)CCn1nc(-c2ccccc2)ccc1=O | -46.8% |

| Structure (SMILES) | hERG current change (%, negative = inhibition) at 10uM |
| --- | --- |
| COc1cccc(C(C(=O)NC(C)(C)C)N(C(=O)CCC(=O)Nc2cc(C)on2)C(C)(C)C)c1OC (stereo not drawn) | -7.81% |
| Cc1nn(C(C)C(=O)NC2CCCCCC2)c(=O)c2nn(-c3ccccc3)c(C)c12 (stereo not drawn) | 1.8% |
| Cc1ccccc1NS(=O)(=O)c1cc2c3c(c1)C(C)C(=O)N3CCC2 (stereo not drawn) | -2.55% |
| Oc1ccc(/C=N/Nc2nc(-c3cccnc3)nc3ccccc23)c(O)c1 | -2.97% |
| CC(CNC(=O)c1ccccc1Cl)NC(=O)c1ccccc1Cl (stereo not drawn) | 11.2% |
| CCOCCCNC(c1ccccc1)c1ccncc1 (stereo not drawn) | 14.5% |
| Cn1nccc1C(=O)N1CCOCC1 | 5.59% |
| CN(c1ccc(C(=O)NC2CC2)cc1)S(=O)(=O)c1ccccc1 | -9.85% |
| Cc1c(NC(=O)C(C)N2C(=O)NC3(CCC(C)CC3)C2=O)c(=O)n(-c2ccccc2)n1C (stereo not drawn) | 18.9% |
| CC(Cc1ccccc1)C(=O)Nc1ccc(Br)cc1 (stereo not drawn) | -1.21% |
| Cc1ccc(NC(=O)CN2C(=O)S/C(=C\c3ccc(OCC(=O)O)c(Br)c3)C2=O)cc1 | 23% |
| CC(/C=C/c1ccccc1)=N/NC(=O)CCC(=O)Nc1ccccc1C | 7.67% |
| CCc1ccccc1Nc1nc2ccccc2n1C(C)C | 8.91% |
| Cc1nn(CCC(=O)NNC(=S)Nc2ccccc2)c(C)c1Br | 14.2% |
| COc1cc(/C=N\NC(=O)c2ccc(C)nc2)ccc1OC(=O)c1ccco1 | -33.1% |
| O=C(NCC1CC1(Cl)Cl)Nc1ccc(Cl)c(Cl)c1 (stereo not drawn) | 8.32% |
| Cc1cccc2cc(=O)[nH]c(C)c12 | 15.6% |
| NC(=O)c1c(NC(=O)C2CCCO2)sc2c1CCC2 (stereo not drawn) | -11.2% |
| CC(C)(SC(=S)N1CCCCCC1)C(=O)O | 24.3% |
| O=C(Nc1ccccc1)c1ccc2c(c1)OCCCO2 | -10.7% |
| COc1ccccc1CNC(=O)C1CCCN(c2cnccn2)C1 (stereo not drawn) | 3.45% |
| O=C(NCCc1ccccc1)C1(c2ccccc2)CCCC1 | 1.72% |
